# The campaign covered roughly 410,000 compounds. About 5,000 (1.2%) were called active. Inconclusive results, whose numbers are uncertain, are shown with a selection of clear calls. Calls come from the whole dose curve; as a rule, active = well fitted inhibition curve with a large enough effect; inconclusive = small, poorly fitted or top-dose-only effect; inactive = no such curve, though single readings can be large or run the other way. A potency beside an inconclusive call is a rough fit, not a confirmed value.
# Experiment: qHTS for Inhibitors of TGF-b; note: nearly all actives have a fitted effect of over 65% in size
# Conditions: HepG2 CAGA-GFP TGF-b/SMAD3 reporter, GFP fluorescence, 18 h, TGF-beta stimulated, 500 pg/mL final; series mostly up to 46.1 µM
# How it was run: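 TGF-beta reporter screen: HEPG2 CAGA-GFP, 1% FBS, 500 pg/mL TGF-beta final, 18 h; per-cell GFP summed per well; curves fitted and categorized by class.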
# Potency is the fitted concentration of half-maximal effect; tags give direction and shape of the fitted curve.
row,SMILES,Potency
1,COc1ccccc1CNC(=O)c1cc(-c2ccccc2)nn1CC1CC(c2cccnc2)=NO1 (stereo unspecified),inactive
2,O=C(Nc1ccc(F)cc1F)c1noc2c1CCC2,"inconclusive: 25.1 µM [inhibitor, single point]"
3,Cc1ccccc1-n1sc2cc(F)ccc2c1=O,"inconclusive: 22.4 µM [inhibitor, single point]"
4,CC1CCCN(c2ccc(C(=O)OCC(=O)N3c4ccccc4Sc4ccccc43)cc2[N+](=O)[O-])C1 (stereo unspecified),inactive
5,Cc1cccc(S(=O)(=O)N(C)C[C@@H]2OCc3cn(nn3)CCCC(=O)N([C@H](C)CO)C[C@H]2C)c1,"inconclusive: 35.5 µM [inhibitor, single point]"
6,CCSC1(SCC)N=C(N)C2(C#N)C(c3ccccc3)NC3=C(CCC3)C12C#N (stereo unspecified),inactive
7,O=C(COC(=O)c1cccs1)NCC1CCCCC1,"inconclusive: 35.5 µM [inhibitor, single point]"
8,C#CCNC(=O)C1=C[C@H](C)C[C@H](OCc2ccc(CO)cc2)O1,"inconclusive: 28.2 µM [inhibitor, single point]"
9,COc1ccc(-c2onc(C)c2C)cc1S(=O)(=O)Nc1ccc(OC(F)(F)F)cc1,"inconclusive: 20 µM [inhibitor, partial curve, poor fit]"
10,CCNC(=O)NC(=O)C(C)OC(=O)c1ccc(-n2nc(SC)sc2=S)cc1 (stereo unspecified),"inconclusive: 35.5 µM [inhibitor, single point]"
11,Cc1ccc(NC(=O)CCCSc2nc3ccccc3[nH]2)cc1,"inconclusive: 11.2 µM [inhibitor, partial curve, poor fit]"
12,CC(=O)Nc1ccc(SCCN2CCN(CC(C)C)CCC2=O)cc1,"inconclusive: 10 µM [inhibitor, partial curve]"
13,O=c1[nH]c(CSc2nnc(COc3ccccc3)n2-c2ccccc2)nc2ccccc12,inactive
14,Cc1oc(S(=O)(=O)N2CCCCC2)cc1NC(=O)Nc1ccc(Cl)cc1,"inconclusive: 2.82 µM [inhibitor, partial curve, poor fit]"
15,COc1cccc(CNC(=O)Cn2ccc3cc(S(=O)(=O)N4CCC(C)CC4)ccc32)c1,"inconclusive: 25.1 µM [inhibitor, single point]"
16,O=S(=O)(NC1c2cccc3cccc(c23)C1Sc1ncccn1)c1ccccc1 (stereo unspecified),"inconclusive: 31.6 µM [inhibitor, single point]"
17,CC(C)COc1ccccc1C1CC(=O)Nc2cc3c(cc21)OCO3 (stereo unspecified),"inconclusive: 10 µM [inhibitor, partial curve, poor fit]"
18,COc1ccc(NC(=O)c2cc(S(=O)(=O)N3CCOCC3)ccc2N2CCOCC2)cc1,inactive
19,O=C(N/N=C\C=C\c1ccc2c(c1)OCO2)C1COc2ccccc2O1 (stereo unspecified),inactive
20,O=S(=O)(c1ccc2ccccc2c1)N1CCN(C(=S)Nc2ccc(F)c(Cl)c2)CC1,"inconclusive: 15.8 µM [inhibitor, partial curve, poor fit]"
21,Cc1ccc(NC(=O)c2ccc(F)c(S(=O)(=O)N3CCOCC3)c2)cc1F,"inconclusive: 7.94 µM [inhibitor, partial curve, poor fit]"
22,CCN(CC)S(=O)(=O)c1cccc(NC(=O)/C=C/c2cccc([N+](=O)[O-])c2)c1,"inconclusive: 31.6 µM [inhibitor, single point]"

row,SMILES,Potency
1,C/C(Cl)=C/CSc1nc2c(c(=O)[nH]c(=O)n2C)n1C(C)C,inactive
2,COc1ccccc1CNC(=O)Cn1nc(C)c2nn(-c3ccc(Cl)cc3)c(C)c2c1=O,"inconclusive: 0.1 µM [inhibitor, full curve, poor fit]"
3,COc1cccc(-c2nnc(NC(=O)c3cccc(F)c3)o2)c1,"inconclusive: 35.5 µM [inhibitor, partial curve, poor fit]"
4,Cn1c(NC(=O)c2ccco2)cc(=O)n(C)c1=O,"inconclusive: 3.98 µM [inhibitor, single point]"
5,COc1ccc(C(=O)COC(=O)c2ccc3c(c2)OCCO3)c(OC)c1,inactive
6,CCCCOc1ccc(C2=NC(c3ccccc3)=Nc3ccc(OC)cc3N2)cc1,inactive
7,COc1cccc(C(O)c2nc(/C=C/c3ccc(C(F)(F)F)cc3)cs2)c1 (stereo unspecified),"inconclusive: 35.5 µM [inhibitor, single point]"
8,Cc1[nH]c2ccccc2c1CCNC(=O)c1ccc2c(c1[N+](=O)[O-])C(=O)c1ccccc1C2=O,"inconclusive: 35.5 µM [inhibitor, single point]"
9,COc1ccc(-c2nc3cnccn3c2Nc2ccc3c(c2)OCO3)cc1,"inconclusive: 22.4 µM [inhibitor, single point]"
10,COC(=O)C[C@@H]1C[C@H]2c3cc(NS(=O)(=O)c4ccccc4)ccc3O[C@H]2[C@@H](CO)O1,"inconclusive: 2.24 µM [inhibitor, partial curve, poor fit]"
11,COc1ccc(Cl)cc1NC(=O)c1c(NCc2ccc(C)o2)sc2c1CCCC2,"inconclusive: 20 µM [inhibitor, partial curve, poor fit]"
12,Cc1ccc(CN(Cc2ccco2)C(=O)c2oc3c(C)c(C)ccc3c2C)cc1,"inconclusive: 11.2 µM [inhibitor, partial curve]"
13,Cc1ccc(NC(=O)c2nc[nH]c2C(=O)Nc2ccccc2F)cc1,inactive
14,O=C(Nc1ccc(-c2nc3cccnc3s2)cc1)c1ccc(Br)o1,inactive
15,Cc1ccc(C(=O)c2coc3c2C(=O)C(=O)c2ccccc2-3)cc1,"inconclusive: 15.8 µM [inhibitor, partial curve, poor fit]"
16,COc1cccc(N(CC(=O)N2CCC(C)CC2)S(=O)(=O)c2ccc(C)cc2)c1,inactive
17,Cc1ccc(C)c(N2CCN(C(=O)CCc3nc(-c4ccc(F)cc4)no3)CC2)c1,"inconclusive: 31.6 µM [inhibitor, single point]"
18,CCC(=O)NC(=S)Nc1ccc(NC(=O)c2ccc(Br)o2)cc1,inactive
19,COc1cc(C2NC(=O)NC(c3ccccc3)=C2C(C)=O)cc(Cl)c1OCC(=O)O (stereo unspecified),"inconclusive: 3.55 µM [inhibitor, single point]"
20,CCN(CC)S(=O)(=O)c1cccc(NC(=O)CCSc2ccc(Cl)cc2)c1,active: 10 µM
21,COc1ccc(OC)c(CCNC(=O)c2cccc(NC(=O)C3=C(C)OCCS3)c2)c1,inactive
22,Cc1ccccc1-c1cnc(C(O)c2ccc(C(C)(C)C)cc2)[nH]1 (stereo unspecified),"inconclusive: 12.6 µM [inhibitor, single point]"

row,SMILES,Potency
1,CCN1C(=S)N[C@@H](c2cccs2)C(C(=O)OC)=C1C,inactive
2,CCC/C(O)=C1\C(=O)CC(c2ccccc2)CC1=NC(C)C(=O)O (stereo unspecified),"inconclusive: 5.62 µM [inhibitor, single point]"
3,COc1cccc(NC(=O)C2CCN(S(=O)(=O)c3ccc4c(c3)OCCO4)CC2)c1,"inconclusive: 35.5 µM [inhibitor, single point]"
4,Cc1ccc(S(=O)(=O)Nc2ccc(Cl)cn2)cc1C,inactive
5,CC(C)(C)C(=O)Nc1nc2c(s1)COc1ccccc1-2,"inconclusive: 12.6 µM [inhibitor, partial curve, poor fit]"
6,Cc1ccccc1OCC(=O)N(Cc1cccs1)C1CCS(=O)(=O)C1 (stereo unspecified),"inconclusive: 20 µM [inhibitor, single point]"
7,CCN1C(=O)c2cccc3c(S(=O)(=O)N(C(=O)c4cccnc4)c4ccc(OC)cc4)ccc1c23,"inconclusive: 35.5 µM [inhibitor, single point]"
8,COc1ccc(C(CCN2CCN(c3ccccc3)CC2)c2c(OC)cc(OC)c3c(-c4ccccc4)cc(=O)oc23)cc1 (stereo unspecified),"inconclusive: 0.112 µM [inhibitor, full curve, poor fit]"
9,CCOc1ccc(-c2nn3c(-c4ccccc4)nnc3s2)cc1,"inconclusive: 6.31 µM [inhibitor, single point]"
10,COc1cc(/C=C/c2ccc3cccc(O)c3n2)ccc1O,"inconclusive: 31.6 µM [inhibitor, single point]"
11,CC(C)Oc1ccc(CNC(=O)c2ccc3nc(Cc4ccccc4)oc3c2)cc1,"inconclusive: 7.94 µM [inhibitor, partial curve]"
12,Clc1ccc(C(c2ccccc2Cl)C(Cl)Cl)cc1 (stereo unspecified),inactive
13,COc1ccccc1CNC(=O)c1ccc(CS(=O)(=O)c2ccccc2)o1,"inconclusive: 0.562 µM [inhibitor, partial curve, poor fit]"
14,COc1ccc(NS(=O)(=O)c2ccc(NC(=S)NC(=O)c3cccc(F)c3)cc2)nn1,"inconclusive: 6.31 µM [inhibitor, single point]"
15,COc1ccc(CN2C(=O)C(NC(=O)c3ccccc3OC)(C(F)(F)F)N=C2c2ccccc2)cc1 (stereo unspecified),"inconclusive: 17.8 µM [inhibitor, partial curve, poor fit]"
16,CC#CCN1C=C(C(=O)OCC)C(C)N(Cc2ccc(Br)cc2)S1(=O)=O (stereo unspecified),"inconclusive: 35.5 µM [inhibitor, partial curve, poor fit]"
17,CCc1ccc(S(=O)(=O)c2nnn(-c3cccc(C)c3)c2N)cc1,inactive
18,Cc1cc(C)n(CCOc2nonc2N)n1,inactive
19,CN(C)c1ccc(/C=C/c2cc[n+](C)c3ccc4ccccc4c23)cc1,active: 2 µM
20,CCOC(=O)c1cc(C(=O)OCC)c2cccc(C)n2c1=O,"inconclusive: 35.5 µM [inhibitor, single point]"
21,COCCCN(C(=O)C1=COCCO1)c1c(N)n(Cc2ccccc2)c(=O)[nH]c1=O,"inconclusive: 35.5 µM [inhibitor, single point]"
22,CC(=O)N1CCc2c(sc3c2c(=O)n(Cc2ccccc2)c(=O)n3CC(=O)Nc2ccc(C)c(F)c2)C1,"inconclusive: 5.62 µM [inhibitor, full curve]"

# From PubChem BioAssay AID588855 (National Center for Advancing Translational Sciences (NCATS), 2011)
